Measured values reported in patent publication US20260131015A1, “NEODEGRADER CONJUGATES” (priority 2022, published 2026).
Where two headings read alike, the source gives them in different places.

Key:
[1] = test system: 3 sarcoma cell lines (Aska-SS, SJCRH30, and RH41); assay: In Vitro Cytotoxicity Assay IV, summary over sarcoma lines; type: cell-based; details: SJCRH30, RH41, 5 days
Description: (§1) Then cell viability was detected with the Cell Counting kit-8 (Dojindo) or CellTiter-Glo® reagent (Promega). The values were normalized to the untreated control for each cell line, and the IC50s were calculated using Prism software.

[2] = test system: human neuroblastoma cell lines (KPNRTBM1, NB1, CHP134, and IMR32); assay: In Vitro Cytotoxicity Assay IV, summary over neuroblastoma lines; type: cell-based; details: KPNRTBM1, NB1, CHP134, IMR32, 5 days
Description: as §1

[3] = test system: NCI-H526 human SCLC cell line; assay: In Vitro Cytotoxicity Assay III (WST-8 cell viability); type: cell-based; details: NCI-H526, 120 hours, WST-8, Table 5
Description: (§2) Cell lines were harvested and plated into 96-well plates. […] The cell viability was determined by colorimetric WST-8 assay (Dojindo Molecular Technologies, Inc.). The OD450 value was read using the SpectraMax M5 plate reader. The values were normalized for each cell line, and IC50 values were calculated using the Prism software.

[4] = test system: IMR32 human neuroblastoma (NB) cell line; assay: as above; type: cell-based; details: IMR32, 120 hours, WST-8, Table 5
Description: as §2

[5] = test system: NCI-H526 human SCLC cell line; assay: In Vitro Cytotoxicity Assay I (WST-8 cell viability); type: cell-based; details: NCI-H526, 120 hours, WST-8, Table 3
Description: (§3) The cell viability was determined by colorimetric WST-8 assay (Dojindo Molecular Technologies, Inc.). The OD450 value was read using the SpectraMax M5 plate reader. The values were normalized for each cell line, and IC50 values were calculated using the Prism software.

[6] = test system: IMR32 human neuroblastoma (NB) cell line; assay: as above; type: cell-based; details: IMR32, 120 hours, WST-8, Table 3
Description: as §3

[7] = test system: NCI-H660 human prostate cancer tumor cells; assay: In Vivo Activity Study I, subcutaneous xenograft; set-up: species or system male BALB/c nude mice; details: single dose 10 mg/kg IV
RH41 sarcoma cell line = assay: In Vitro Cytotoxicity Assay IV (Cell Counting kit-8 or CellTiter-Glo); type: cell-based; details: RH41, 5 days, Table 6
Description: as §1

[8] = test system: Aska-SS sarcoma cell line; assay: as above; type: cell-based; details: 5 days, Table 6
Description: as §1

[9] = test system: CHP134 human neuroblastoma cell line; assay: as above; type: cell-based; details: CHP134, 5 days, Table 6
Description: as §1

[10] = test system: IMR32 human neuroblastoma cell line; assay: as above; type: cell-based; details: IMR32, 5 days, Table 6
Description: as §1

[11] = test system: NB1 human neuroblastoma cell line; assay: as above; type: cell-based; details: NB1, 5 days, Table 6
Description: as §1

[12] = test system: SJCRH30 sarcoma cell line; assay: as above; type: cell-based; details: SJCRH30, 5 days, Table 6
Description: as §1

[13] = test system: human NCIH660 neuroendocrine prostate cancer (NEPC) cell line; assay: as above; type: cell-based; details: NCIH660, 5 days
Description: as §1

NCI-H146 SCLC cell line = assay: In Vitro Cytotoxicity Assay II (WST-8 cell viability); type: cell-based; details: NCI-H146, 120 hours, WST-8, Table 4
Description: as §2, with “IC50s” for “IC50 values”

NCI-H82 SCLC cell line = assay: as above; type: cell-based; details: NCI-H82, 120 hours, WST-8, Table 4
Description: as §2, with “IC50s” for “IC50 values”

NCI-H526 SCLC cell line = assay: as above; type: cell-based, human; details: NCI-H526, 120 hours, WST-8, Table 4
Description: as §2, with “IC50s” for “IC50 values”

NCI-H1048 SCLC cell line = assay: as above; type: cell-based, human; details: NCI-H1048, 120 hours, WST-8, Table 4
Description: as §2, with “IC50s” for “IC50 values”

[14] = test system: IMR32 human neuroblastoma cancer tumor cells; assay: In Vivo Activity Study III, subcutaneous xenograft
[15] = test system: NCI-H1048 human lung cancer cells; assay: In Vivo Activity Study II, subcutaneous xenograft; set-up: species or system female BALB/c nude mice; details: single dose 10 mg/kg IV

B1: Conjugate (VIII) (conjugate)
heavy: QVQLVESGGGVVQPGRSLRLSCAASGFTFSSFGMHWVRQAPGKGLEWVAYISSGSFTIYYADSVKGRFTISRDNSKNTLYLQMNSLRAEDTAVYYCARMRKGYAMDYWGQGTLVTVSSASTKGPSVFPLAPSSKSTSGGTAALGCLVKDYFPEPVTVSWNSGALTSGVHTFPAVLQSSGLYSLSSVVTVPSSSLGTQTYICNVNHKPSNTKVDKKV[letters of human IgG1 Fc with L234A L235A N297A (EU numbers) not shown]
light: DVVMTQSPLSLPVTLGQPASISCRSSQIIIHSDGNTYLEWFQQRPGQSPRRLIYKVSNRFSGVPDRFSGSGSGTDFTLKISRVEAEDVGVYYCFQGSHVPHTFGQGTKVEIKRTVAAPSVFIFPPSDEQLKSGTASVVCLLNNFYPREAKVQWKVDNALQSGNSQESVTEQDSKDSTYSLSSTLTLSKADYEKHKVYACEVTHQGLSSPVTKSFNRGEC
[1]
  IC50 values range over 3 sarcoma cell lines: 8.09 to 2.02×10^−11 M
[2]
  IC50 values range over human neuroblastoma cell lines: 1.23×10^−10 to 2.35×10^−13 M
[3]
  IC50: 0.00614 nM
[4]
  IC50: 0.00228 nM
[5]
  IC50: 0.00458 nM
[6]
  IC50: 0.00242 nM
[7]
  antitumor activity against NCI-H660 xenograft (comparison, FIG. 5A): slightly superior to Compound (IV)—antibody CD56-B DAR8 conjugate
[7]; study period
  gross clinical abnormalities: No other gross clinical abnormalities were observed
RH41 sarcoma cell line
  IC50: 0.0202 nM
[8]
  IC50: 0.0799 nM
[9]
  IC50: 0.0149 nM
[10]
  IC50: 0.123 nM
[11]
  IC50: 0.00249 nM
[12]
  IC50: 0.0809 nM
[13]; rounded value, read-out: IC50 in NCIH660 NEPC cell line
  IC50: 3e-10 M
[13]; NEPC, Table 6, read-out: In Vitro Cytotoxicity IC50 Values (M) NCIH660
  IC50: 3.22e-10 M
NCI-H146 SCLC cell line
  IC50: 0.0174 nM
NCI-H82 SCLC cell line
  IC50: 0.0723 nM
NCI-H526 SCLC cell line
  IC50: 0.0277 nM
NCI-H1048 SCLC cell line
  IC50: 0.00118 nM
[14]; single IV dose, 3 mg/kg (Conjugate (VIII)) or 6.6 mg/kg (Conjugate (IX)), study period
  gross clinical abnormalities: No other gross clinical abnormalities were observed
[14]; single dose 3 mg/kg IV, day 28 post dosing
  mean tumor volume: 0 mm^3
[14]; single dose 3 mg/kg IV, day 28 post dosing, P<0.001 vs. control
  TGI: 100%

B2: Conjugate (VI): Compound (III) conjugated to anti-CD56 antibody CD56-A, DAR 8 (conjugate)
heavy: QVQLVESGGGVVQPGRSLRLSCAASGFTFSSFGMHWVRQAPGKGLEWVAYISSGSFTIYYADSVKGRFTISRDNSKNTLYLQMNSLRAEDTAVYYCARMRKGYAMDYWGQGTLVTVSS[letters of human IgG1 constant region not shown]
light: B1 light
[15]; day 36 post tumor inoculation
  mean tumor size: 73 mm^3
[15]; day 36 post tumor inoculation, P<0.001 vs. control
  TGI: 97.5%
[15]; study period
  gross clinical abnormalities: No other gross clinical abnormalities were observed
NCI-H146 SCLC cell line
  IC50: 0.0321 nM
NCI-H82 SCLC cell line
  IC50: 0.115 nM
NCI-H526 SCLC cell line
  IC50: 0.0548 nM
NCI-H1048 SCLC cell line
  IC50: 0.00542 nM

B3: Antibody CD56-B: anti-CD56 antibody, heavy chain SEQ ID NO: 12, light chain SEQ ID NO: 11 (antibody)
heavy: B1 heavy
light: B1 light
modifications: Heavy chain of CD56-B; Light chain of CD56-A and CD56-B
[5]
  IC50: > 20 nM
[6]
  IC50: > 20 nM
